Tested on: Post-Lyme Disease Syndrome (PLDS) patients
Settings: Case 6; both taken for an additional 21 days

Structure (SMILES): CCc1ccc(CCOc2ccc(CC3SC(=O)NC3=O)cc2)nc1 (stereo not shown) [pioglitazone]
- tolerability of CSM with pioglitazone: without recurrence of intensification, evidence of hypoglycemia or abnormalities in liver function tests

Source: patent US20030219400A1 (priority 2002, published 2003)
